# Source: PubChem BioAssay AID588855 (National Center for Advancing Translational Sciences (NCATS), 2011)
# Several values for one entry are separate records, joined by “and”; a condition that tells them apart may be missing. Equal entries are not always repeated. The whole screen tested about 410,000 compounds, of which about 5,000 (1.2%) were called active. Inconclusive results, whose numbers are uncertain, are shown with a selection of clear calls. Calls follow the shape of the dose curve; as a rule, active = well fitted inhibition curve with a large enough effect; inconclusive = small, poorly fitted or top-dose-only effect; inactive = no such curve, though single readings can be large or run the other way. Potencies of inconclusive entries are doubtful fits and often do not repeat.
# Test: qHTS for Inhibitors of TGF-b; also: nearly all actives have a fitted effect of over 65% in size
# Settings: HepG2 CAGA-GFP TGF-b/SMAD3 reporter, GFP fluorescence, 18 h, TGF-beta stimulated, 500 pg/mL final; series mostly up to 46.1 µM
# Outline: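 HEPG2 CAGA-GFP cells (1000/well, DMEM with 1% FBS) were pre-incubated 2 h at 37 degrees C, given compound by pin tool, then stimulated with TGF-beta at 500 pg/mL final for 18 h before per-cell GFP fluorescence imaging.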
# Potency is read from the fitted curve at half-maximal effect; tags tell the direction and shape of the fitted curve.
row,SMILES,Potency
1,CCc1ccc(NC(=O)c2ccc(F)c(S(=O)(=O)NC3CCCCCC3)c2)cc1,active: 11.2 µM
2,O=C(NNC(=O)c1cc2cc(Br)ccc2oc1=O)c1ccc(O)cc1O,"inconclusive: 2.24 µM [inhibitor, full curve, poor fit]"
3,O=C(C1=C[C@H](C2CCCCC2)C[C@H](OCc2ccc(CO)cc2)O1)N1CCN(Cc2ccccc2)CC1,"inconclusive: 10 µM [inhibitor, partial curve, poor fit]"
4,CCCCn1c(N)c(N(CC(C)C)C(=O)c2cccc(-n3cnnn3)c2)c(=O)[nH]c1=O,inactive
5,Cc1coc2c(C)c3oc(=O)c(CC(=O)NCc4ccccc4)c(C)c3cc12,inactive
6,Cc1c(Cl)cccc1NC(=O)CN1C(=O)COc2ccc(S(=O)(=O)N3CCCCCC3)cc21,inactive
7,CC(=O)C1=CCC(c2cccs2)N(S(=O)(=O)c2ccc(C)cc2)C1 (stereo not drawn),"inconclusive: 15.8 µM [inhibitor, single point]"
8,COc1ccccc1CNC(=O)c1c(-c2ccccc2)nn(-c2ccccc2)c1C,inactive
9,CC(C)[C@H]1c2ccc(F)cc2CC[C@@]1(CCN(C)CCCc1nc2ccccc2[nH]1)OC(=O)C1CC1,active: 11.2 µM
10,Cc1ccc(C(=O)Nc2cc([N+](=O)[O-])ccc2F)s1,"inconclusive: 5.62 µM [inhibitor, single point]"
11,COc1cccc(-c2nc(=S)c3c(o2)CCCC3)c1,inactive
12,COc1ccc(-c2cnnn2-c2ccc([N+](=O)[O-])cc2)cc1,inactive
13,CN1CCN(C(=O)c2ccc3c(c2)N(Cc2cccc(Cl)c2)C(=O)c2ccccc2S3(=O)=O)CC1,"inconclusive: 25.1 µM [inhibitor, single point]"
14,CCC1(CC)C(=O)C2=C3C1[C@H](C(=O)OC)C=C(C(=O)OC)C[C@H]3n1c(=O)n(-c3ccccc3)c(=O)n1[C@H]2C (stereo partly drawn),"inconclusive: 15.8 µM [inhibitor, partial curve, poor fit]"
15,COc1ccc(Br)cc1/C=C/C(=O)Nc1ccc(C)cc1,"inconclusive: 7.08 µM [inhibitor, full curve, poor fit]"
16,CC1CCc2noc(NC(=O)c3ccccc3[N+](=O)[O-])c2C1 (stereo not drawn),"inconclusive: 2.82 µM [inhibitor, partial curve, poor fit]"
17,Cc1cc(C(F)F)n2nc(C(=O)Nc3cc(Cl)ccc3C)nc2n1,"inconclusive: 3.98 µM [inhibitor, full curve, poor fit]"
18,CCOC(=O)N1CCC(Nc2c(NCCCN(CC)CC)c(=O)c2=O)CC1,"inconclusive: 0.891 µM [inhibitor, full curve, poor fit]"
19,CC(=O)NC(=S)Nc1ccc(S(=O)(=O)N(C)Cc2ccccc2)cc1,"inconclusive: 35.5 µM [inhibitor, single point]"
20,CCOC(=O)c1c(NC(=O)c2ccc(Cl)s2)sc(C)c1C,inactive
21,Cc1ccc(C(=O)N2CCC(Cc3ccccc3)CC2)cc1S(=O)(=O)N1CCOCC1,inactive
22,Cn1[nH]c(-c2ccccc2)c(/C=N/O)c1=O,inactive
23,O=C(Nc1cccnc1)c1ccc(COc2cc(Cl)ccc2Cl)o1,"inconclusive: 25.1 µM [inhibitor, single point]"

row,SMILES,Potency
1,CC1CN(c2ccc([N+](=O)[O-])c(NCCOc3ccc(Cl)cc3)c2)CC(C)N1 (stereo not drawn),"inconclusive: 22.4 µM [inhibitor, single point]"
2,COc1cc(OC)nc(-n2ncc(Br)c(Br)c2=O)n1,active: 3.55 µM
3,COc1ccccc1Nc1nc(-c2cccc([N+](=O)[O-])c2)cs1,"inconclusive: 22.4 µM [inhibitor, single point]"
4,Cc1ccc(-c2nc(N)n(C(=O)c3cccnc3)n2)cc1,"inconclusive: 7.94 µM [inhibitor, partial curve, poor fit]"
5,CC(C)(C)c1cc(C(=O)N2CCc3ccccc3C2)ccn1,inactive
6,COc1cccc(C2CC(=O)Nc3cc(OC)c(OC)cc32)c1 (stereo not drawn),inactive
7,O=[N+]([O-])/C=C/c1cc2ccccc2[nH]1,"inconclusive: 35.5 µM [inhibitor, single point]"
8,Cc1ccc(-n2nnc(-c3nsc(NC(=O)c4ccccc4)n3)c2C)cc1,inactive
9,O=C(CCCc1c[nH]c2ccccc12)N1CCN(S(=O)(=O)c2cccs2)CC1,"inconclusive: 10 µM [inhibitor, partial curve]"
10,CCc1cccc(C)c1NS(=O)(=O)c1cc(-c2cc(C)no2)ccc1C,"inconclusive: 1.78 µM [inhibitor, full curve]"
11,c1ccc2c(Nc3nc4c(s3)CCCC4)cccc2c1,"inconclusive: 0.631 µM [inhibitor, partial curve, poor fit]"
12,O=S(=O)(Nc1cccc(-c2ccc(N3CCCCCC3)nn2)c1)c1ccc(F)cc1,"inconclusive: 35.5 µM [inhibitor, single point] and inconclusive: 12.6 µM [inhibitor, single point]"
13,CC1OC(Oc2ccc3ccc(=O)oc3c2-c2c(O)ccc3cc(Oc4ccc5ccc(=O)oc5c4)c(=O)oc23)C(O)C(O)C1O (stereo not drawn),inactive
14,COc1cccc(/C=C2\SC(=S)N(CCCC(=O)Nc3cc(C)on3)C2=O)c1,inactive
15,Nc1nc(=O)n(C2OC(CO)C(O)C2O)cc1F (stereo not drawn),inactive
16,Cc1cccc(CNS(=O)(=O)c2csc(C(N)=O)c2)c1,"inconclusive: 4.47 µM [inhibitor, full curve]"
17,Cn1c(=O)c2[nH]c(C3CCC3)nc2n(C)c1=O,inactive
18,Cc1cc(C)cc(OCc2nnc(SCC(=O)N3CCCCC3)o2)c1,inactive
19,CSc1cccc(CN2CCN(CCc3ccccc3)C(CCO)C2)c1 (stereo not drawn),inactive
20,Cc1ccc(NC(=O)NC(=O)CSc2nnc(-c3ccc(Cl)cc3Cl)n2N)c(C)c1,inactive
21,O=C(Cn1c(=O)c2ccccc2n(CC(=O)Nc2ccc(Cl)cc2)c1=O)NCCc1ccccc1,"inconclusive: 3.55 µM [inhibitor, partial curve]"
22,O=C(Oc1cccc(C(=S)N2CCOCC2)c1)c1ccc([N+](=O)[O-])cc1[N+](=O)[O-],"inconclusive: 35.5 µM [inhibitor, single point]"
23,COc1ccc(C(=O)C2CCCN(Cc3c[nH]c4ccccc34)C2)c(OC)c1 (stereo not drawn),"inconclusive: 20 µM [inhibitor, partial curve, poor fit]"

row,SMILES,Potency
1,CCOC(=O)c1c(C)[nH]c(CCC(=O)NCCCN2CCN(c3cc(Cl)ccc3C)CC2)c1C,"inconclusive: 35.5 µM [inhibitor, partial curve, poor fit]"
2,Cc1nn(Cc2ccccc2)c(C)c1NC(=O)CSc1nc(C2CC2)nc2c1cnn2-c1ccccc1,inactive
3,CC(NCc1ccc(-c2ccccc2)cc1)C(O)c1ccccc1 (stereo not drawn),"inconclusive: 22.4 µM [inhibitor, single point]"
4,O=C(COC(=O)Cc1ccccc1[N+](=O)[O-])Nc1nnc(-c2ccccc2)o1,inactive
5,O=c1c2sc3ccccc3c2n(Cc2ccccc2Cl)c(=O)n1Cc1ccccc1,inactive
6,COc1ccc(C/C(C)=N/NC(=S)Nc2ccccc2F)cc1,"inconclusive: 11.2 µM [inhibitor, partial curve, poor fit]"
7,Cc1ccc(C)n1-c1c(C(=O)NCC(C)c2ccccc2)sc2ncccc12 (stereo not drawn),active: 11.2 µM
8,CCOC(=O)C1=C[C@@H](C(C)(C)C)N(S(=O)(=O)c2ccc(C)cc2)[C@H]1c1ccc(C)cc1,"inconclusive: 8.91 µM [inhibitor, partial curve, poor fit]"
9,O=C(CNC(=O)c1cccc(F)c1)N/N=C/c1cccs1,inactive
10,Oc1c(C(c2ccccn2)N2CCC(Cc3ccccc3)CC2)cc(Cl)c2cccnc12 (stereo not drawn),active: 15.8 µM
11,Cc1ccc(C(=O)C(OC(=O)c2c(C)cc(=O)oc2C)c2ccccc2)cc1 (stereo not drawn),"inconclusive: 35.5 µM [inhibitor, single point]"
12,Cc1ccc(-n2nc3c(c2NC(=O)c2ccc(S(=O)(=O)N4CCOCC4)cc2)CSC3)c(C)c1,"inconclusive: 1.12 µM [inhibitor, partial curve, poor fit]"
13,Cc1ccc(C)c(C(=O)COc2ccc(C)nc2[N+](=O)[O-])c1,"inconclusive: 35.5 µM [inhibitor, single point]"
14,COc1ccc(CNC(=O)Cn2c(=O)oc3cc(S(=O)(=O)N4CCC(C)CC4)ccc32)cc1,"inconclusive: 35.5 µM [inhibitor, single point]"
15,Cc1ccc(C)c(S(=O)(=O)N2CCCCC2CCNC(=O)C(=O)NCc2cccnc2)c1 (stereo not drawn),"inconclusive: 6.31 µM [inhibitor, partial curve]"
16,COc1cccc(CNC(=O)CN2C(=O)CSc3c2c(C)nn3-c2ccccc2)c1OC,"inconclusive: 4.47 µM [inhibitor, full curve, poor fit]"
17,C#CCNC(=O)C1=C[C@@H](c2ccc(Br)cc2)[C@H](CCCO)[C@@H](OCC)O1,inactive
18,CCOC(=O)c1cc(C(=O)OCC)c(=O)[nH]c1N1CCCC1,"inconclusive: 35.5 µM [inhibitor, single point]"
19,COc1cc(SC)ccc1C(=O)N1CCN(c2ccccc2F)CC1,"inconclusive: 6.31 µM [inhibitor, single point]"
20,Cc1ccc(C)c(N2CCN(C(=O)Nc3ccc4c(c3)N(C)C(=O)CS4)CC2)c1,"inconclusive: 10 µM [inhibitor, single point]"
21,Cn1c(COc2ccc(Cl)cc2)nc2ccccc2c1=O,"inconclusive: 11.2 µM [inhibitor, partial curve]"
22,CCN1/C(=C/c2cc[n+](C)cc2)C=Cc2cc(C)ccc21,"inconclusive: 2.82 µM [inhibitor, full curve, poor fit]"
